The other results are listed elsewhere or left out. The full chains were built here from the parent and the listed change. Values near 0.05 are background.
B1: TEV protease; numbered along this chain (parent)
chain: MGESLFKGPRDYNPISSSICHLTNESDGHTTSLYGIGFGPFIITNKHLFRRNNGTLVVQSLHGVFKVKDTTTLQQHLVDGRDMIIIRMPKDFPPFPQKLKFREPQREERICLVTTNFQTKSMSSMVSDTSCTFPSGDGIFWKHWIQTKDGQCGSPLVSTRDGFIVGIHSASNFTNTNNYFTSVPKNFMELLTNQEAQQWVSGWRLNADSVLWGGHKVFMVKPEEPFQPVKEATQL

Variants of: B1
Test: raw area under fraction-flipped curve 0-4 h after induction (AUC4h, not background-subtracted), DNA-recorder readout of cleavage of the substrate (dimensionless); higher = more cleavage of the substrate by the protease variant
Conditions: temperature: 34 °C; time window: 0-4 h after rhamnose induction
Description: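 In vivo DNA recorder in E. coli TOP10(DE3) ΔrhaA at 34 °C. Each TEVp single-site mutant (parent TEVp 0) is paired with a single-site variant of the 7-mer TEVs (canonical ENLYFQ|S). The substrate sits between flexible linkers in a Bxb1-sfGFP-TEVs-SsrA fusion, so cleavage stabilises Bxb1 and speeds flipping of a recombination array, read by NGS. The value is the raw area under the fraction-flipped curve over 0-4 h after rhamnose induction (AUC4h), with ≥20 reads per time point. It is not background-subtracted; inactive controls average about 0.047.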
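Note: Bxb1 expression induced with 0.2% (w/v) L-rhamnose at OD600 near 0.5, cultures sampled hourly, flipped fraction per protease–substrate barcode pair counted by paired-end Illumina sequencing.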

Variant | area with substrate ENCYFQS | area with substrate ENNYFQS | area with substrate ENQYFQS | area with substrate ENSYFQS | area with substrate ENVYFQS | area with substrate ENWYFQS | area with substrate ENDYFQS | area with substrate ENEYFQS | area with substrate ENHYFQS | area with substrate ENMYFQS
MGESLFKGPRDYNPISSSICHLTNESDGHTTSLYGIGFGPFIITNKHLFRRNNGTLVVQSLHGVFKVKDTTTLQQHLVDGRDMIIIRMPKDFPPFPQKLKFREPQREERICLVTTNFQTKSMSSMVSDTSCTFPSGDGIFWKHWIQTKDGQCGSPLKSTRDGFIVGIHSASNFTNTNNYFTSVPKNFMELLTNQEAQQWVSGWRLNADSVLWGGHKVFMVKPEEPFQPVKEATQL [V157K] | 0.059 | 0.0575 | 0.0527 | 0.0485 | 0.057 | 0.0543 | – | – | – | –
MGESLFKGPRDYNPISSSICHLTNESDGHTTSLYGIGFGPFIITNKHLFRRNNGTLVVQSLHGVFKVKDTTTLQQHLVDGRDMIIIRMPKDFPPFPQKLKFREPQREERICLVTTNFQTKSMSSMVSDTSCTFPSGDGIFWKHWIQTKDGQCGSPLVQTRDGFIVGIHSASNFTNTNNYFTSVPKNFMELLTNQEAQQWVSGWRLNADSVLWGGHKVFMVKPEEPFQPVKEATQL [S158Q] | 0.0757 | – | 0.0575 | – | 0.0515 | – | 0.0532 | 0.0391 | 0.0363 | 0.0424
MGESLFKGPRDYNPISSSICHLTNESDGHTTSLYGIGFGPFIITNKHLFRRNNGTLVVQSLHGVFKVKDTTTLQQHLVDGRDMIIIRMPKDFPPFPQKLKFREPQREERICLVTTNFQTKSMSSMVSDTSCTFPSGDGIFWKHWIQTKDGQCGSPLVSTRDGGIVGIHSASNFTNTNNYFTSVPKNFMELLTNQEAQQWVSGWRLNADSVLWGGHKVFMVKPEEPFQPVKEATQL [F163G] | 0.0708 | – | 0.0703 | – | – | – | 0.0615 | – | – | –
MGESLFKGPRDYNPISSSICHLTNESDGHTTSLYGIGFGPFIITNKHLFRRNNGTLVVQSLHGVFKVKDTTTLQQHLVDGRDMIIIRMPKDFPPFPQKLKFREPQREERICLVTTNFQTKSMSSMVSDTSCTFPSGDGIFWKHWIQTKDGQCGSPLVSTRDGFIVGIHVASNFTNTNNYFTSVPKNFMELLTNQEAQQWVSGWRLNADSVLWGGHKVFMVKPEEPFQPVKEATQL [S169V] | 0.055 | 0.0611 | 0.0713 | 0.0379 | – | – | 0.0512 | 0.0678 | 0.048 | –
MGESLFKGPRDYNPISSSICHLTNESDGHTTSLYGIGFGPFIITNKHLFRRNNGTLVVQSLHGVFKVKDTTTLQQHLVDGRDMIIIRMPKDFPPFPQKLKFREPQREERICLVTTNFQTKSMSSMVSDTSCTFPSGDGIFWKHWIQTKDGQCGSPLVSTRDGFIVGIHSDSNFTNTNNYFTSVPKNFMELLTNQEAQQWVSGWRLNADSVLWGGHKVFMVKPEEPFQPVKEATQL [A170D] | 0.0548 | 0.0505 | 0.0551 | 0.0669 | – | – | – | – | 0.0501 | –
MGESLFKGPRDYNPISSSICHLTNESDGHTTSLYGIGFGPFIITNKHLFRRNNGTLVVQSLHGVFKVKDTTTLQQHLVDGRDMIIIRMPKDFPPFPQKLKFREPQREERICLVTTNFQTKSMSSMVSDTSCTFPSGDGIFWKHWIQTKDGQCGSPLVSTRDGFIVGIHSNSNFTNTNNYFTSVPKNFMELLTNQEAQQWVSGWRLNADSVLWGGHKVFMVKPEEPFQPVKEATQL [A170N] | 0.058 | 0.0655 | – | 0.0486 | 0.0925 | – | – | 0.0721 | – | –
MGESLFKGPRDYNPISSSICHLTNESDGHTTSLYGIGFGPFIITNKHLFRRNNGTLVVQSLHGVFKVKDTTTLQQHLVDGRDMIIIRMPKDFPPFPQKLKFREPQREERICLVTTNFQTKSMSSMVSDTSCTFPSGDGIFWKHWIQTKDGQCGSPLVSTRDGFIVGIHSARNFTNTNNYFTSVPKNFMELLTNQEAQQWVSGWRLNADSVLWGGHKVFMVKPEEPFQPVKEATQL [S171R] | 0.0657 | 0.049 | 0.0788 | 0.0636 | – | 0.0624 | 0.0479 | 0.0562 | – | –
MGESLFKGPRDYNPISSSICHLTNESDGHTTSLYGIGFGPFIITNKHLFRRNNGTLVVQSLHGVFKVKDTTTLQQHLVDGRDMIIIRMPKDFPPFPQKLKFREPQREERICLVTTNFQTKSMSSMVSDTSCTFPSGDGIFWKHWIQTKDGQCGSPLVSTRDGFIVGIHSASNFTNTNLYFTSVPKNFMELLTNQEAQQWVSGWRLNADSVLWGGHKVFMVKPEEPFQPVKEATQL [N178L] | 0.0684 | – | – | 0.0646 | 0.0872 | – | 0.0497 | 0.0646 | – | 0.0775
MGESLFKGPRDYNPISSSICHLTNESDGHTTSLYGIGFGPFIITNKHLFRRNNGTLVVQSLHGVFKVKDTTTLQQHLVDGRDMIIIRMPKDFPPFPQKLKFREPQREERICLVTTNFQTKSMSSMVSDTSCTFPSGDGIFWKHWIQTKDGQCGSPLVSTRDGFIVGIHSASNFTNTNNYTTSVPKNFMELLTNQEAQQWVSGWRLNADSVLWGGHKVFMVKPEEPFQPVKEATQL [F180T] | 0.049 | 0.0571 | 0.0537 | – | – | – | 0.0399 | 0.0594 | 0.0423 | –
MGESLFKGPRDYNPISSSICHLTNESDGHTTSLYGIGFGPFIITNKHLFRRNNGTLVVQSLHGVFKVKDTTTLQQHLVDGRDMIIIRMPKDFPPFPQKLKFREPQREERICLVTTNFQTKSMSSMVSDTSCTFPSGDGIFWKHWIQTKDGQCGSPLVSTRDGFIVGIHSASNFTNTNNYFNSVPKNFMELLTNQEAQQWVSGWRLNADSVLWGGHKVFMVKPEEPFQPVKEATQL [T181N] | 0.0622 | – | 0.0786 | – | – | – | 0.0623 | – | – | –
MGESLFKGPRDYNPISSSICHLTNESDGHTTSLYGIGFGPFIITNKHLFRRNNGTLVVQSLHGVFKVKDTTTLQQHLVDGRDMIIIRMPKDFPPFPQKLKFREPQREERICLVTTNFQTKSMSSMVSDTSCTFPSGDGIFWKHWIQTKDGQCGSPLVSTRDGFIVGIHSASNFTNTNNYFQSVPKNFMELLTNQEAQQWVSGWRLNADSVLWGGHKVFMVKPEEPFQPVKEATQL [T181Q] | 0.0753 | – | – | 0.0518 | – | – | 0.0627 | – | – | –

Same assay, conditions: temperature: 34 °C; time window: 0-4 h after rhamnose induction

Variant | area with substrate ENTYFQS | area with substrate ENFYFQS | area with substrate ENIYFQS | area with substrate ENKYFQS | area with substrate ENYYFQS | area with substrate ENGYFQS | area with substrate ENPYFQS | area with substrate ENRYFQS
MGESLFKGPRDYNPISSSICHLTNESDGHTTSLYGIGFGPFIITNKHLFRRNNGTLVVQSLHGVFKVKDTTTLQQHLVDGRDMIIIRMPKDFPPFPQKLKFREPQREERICLVTTNFQTKSMSSMVSDTSCTFPSGDGIFWKHWIQTKDGQCGSPLVQTRDGFIVGIHSASNFTNTNNYFTSVPKNFMELLTNQEAQQWVSGWRLNADSVLWGGHKVFMVKPEEPFQPVKEATQL [S158Q] | 0.0563 | – | – | – | – | – | – | –
MGESLFKGPRDYNPISSSICHLTNESDGHTTSLYGIGFGPFIITNKHLFRRNNGTLVVQSLHGVFKVKDTTTLQQHLVDGRDMIIIRMPKDFPPFPQKLKFREPQREERICLVTTNFQTKSMSSMVSDTSCTFPSGDGIFWKHWIQTKDGQCGSPLVSTRDGFIVGIHVASNFTNTNNYFTSVPKNFMELLTNQEAQQWVSGWRLNADSVLWGGHKVFMVKPEEPFQPVKEATQL [S169V] | 0.0664 | 0.0644 | 0.0623 | – | – | – | – | –
MGESLFKGPRDYNPISSSICHLTNESDGHTTSLYGIGFGPFIITNKHLFRRNNGTLVVQSLHGVFKVKDTTTLQQHLVDGRDMIIIRMPKDFPPFPQKLKFREPQREERICLVTTNFQTKSMSSMVSDTSCTFPSGDGIFWKHWIQTKDGQCGSPLVSTRDGFIVGIHSDSNFTNTNNYFTSVPKNFMELLTNQEAQQWVSGWRLNADSVLWGGHKVFMVKPEEPFQPVKEATQL [A170D] | 0.0707 | – | – | – | – | – | – | –
MGESLFKGPRDYNPISSSICHLTNESDGHTTSLYGIGFGPFIITNKHLFRRNNGTLVVQSLHGVFKVKDTTTLQQHLVDGRDMIIIRMPKDFPPFPQKLKFREPQREERICLVTTNFQTKSMSSMVSDTSCTFPSGDGIFWKHWIQTKDGQCGSPLVSTRDGFIVGIHSNSNFTNTNNYFTSVPKNFMELLTNQEAQQWVSGWRLNADSVLWGGHKVFMVKPEEPFQPVKEATQL [A170N] | 0.0578 | 0.0422 | – | 0.0629 | 0.0704 | – | – | –
MGESLFKGPRDYNPISSSICHLTNESDGHTTSLYGIGFGPFIITNKHLFRRNNGTLVVQSLHGVFKVKDTTTLQQHLVDGRDMIIIRMPKDFPPFPQKLKFREPQREERICLVTTNFQTKSMSSMVSDTSCTFPSGDGIFWKHWIQTKDGQCGSPLVSTRDGFIVGIHSARNFTNTNNYFTSVPKNFMELLTNQEAQQWVSGWRLNADSVLWGGHKVFMVKPEEPFQPVKEATQL [S171R] | 0.0929 | – | – | – | 0.0505 | 0.0582 | 0.0763 | 0.0532
MGESLFKGPRDYNPISSSICHLTNESDGHTTSLYGIGFGPFIITNKHLFRRNNGTLVVQSLHGVFKVKDTTTLQQHLVDGRDMIIIRMPKDFPPFPQKLKFREPQREERICLVTTNFQTKSMSSMVSDTSCTFPSGDGIFWKHWIQTKDGQCGSPLVSTRDGFIVGIHSASNFTNTNLYFTSVPKNFMELLTNQEAQQWVSGWRLNADSVLWGGHKVFMVKPEEPFQPVKEATQL [N178L] | – | – | – | 0.0916 | – | – | 0.0379 | 0.0583
MGESLFKGPRDYNPISSSICHLTNESDGHTTSLYGIGFGPFIITNKHLFRRNNGTLVVQSLHGVFKVKDTTTLQQHLVDGRDMIIIRMPKDFPPFPQKLKFREPQREERICLVTTNFQTKSMSSMVSDTSCTFPSGDGIFWKHWIQTKDGQCGSPLVSTRDGFIVGIHSASNFTNTNNYTTSVPKNFMELLTNQEAQQWVSGWRLNADSVLWGGHKVFMVKPEEPFQPVKEATQL [F180T] | – | – | 0.049 | 0.0476 | – | – | 0.0521 | –
MGESLFKGPRDYNPISSSICHLTNESDGHTTSLYGIGFGPFIITNKHLFRRNNGTLVVQSLHGVFKVKDTTTLQQHLVDGRDMIIIRMPKDFPPFPQKLKFREPQREERICLVTTNFQTKSMSSMVSDTSCTFPSGDGIFWKHWIQTKDGQCGSPLVSTRDGFIVGIHSASNFTNTNNYFNSVPKNFMELLTNQEAQQWVSGWRLNADSVLWGGHKVFMVKPEEPFQPVKEATQL [T181N] | – | – | 0.0854 | – | – | – | – | 0.076
MGESLFKGPRDYNPISSSICHLTNESDGHTTSLYGIGFGPFIITNKHLFRRNNGTLVVQSLHGVFKVKDTTTLQQHLVDGRDMIIIRMPKDFPPFPQKLKFREPQREERICLVTTNFQTKSMSSMVSDTSCTFPSGDGIFWKHWIQTKDGQCGSPLVSTRDGFIVGIHSASNFTNTNNYFQSVPKNFMELLTNQEAQQWVSGWRLNADSVLWGGHKVFMVKPEEPFQPVKEATQL [T181Q] | 0.0544 | 0.0634 | – | 0.0808 | – | – | – | –
